Experimental data: the RNAGym collection of RNA variant scans (doi:10.1101/gad.245936.114)
Variants at the background level are over-represented here.

B1: tRNA (parent)
chain: CUCUCGGUAGCCAAGUUGGUUUAAGGCGCAAGACUUUAAUUUAUCACUACGAAAUCUUGAGAUCGGGCGUUCGACUCGCCCCCGGGAGAUUUUUUCCUCGAGCAA

Variants of: B1
Assay: nonsense suppression (GFP-seq) (ratio to wild type); higher = more function; SUP4oc tRNA, yeast GFP reporter sort-seq
Method in brief: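 To measure nonsense suppression, tRNA variants from a library carrying ~3% random mutations were integrated into the yeast genome alongside RFP and a GFP ochre reporter under galactose control. Growth took place in raffinose/galactose medium supplemented with 80 mg/L adenine, followed by sorting into GFP/RFP bins and Illumina sequencing of each bin (phred ≥30). For each variant with ≥100 reads and ≥30 cells, the bin median GFP/RFP values were weighted by its estimated cell share per bin and referenced to the unmutated parent tRNA.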

Variant | nonsense suppression
CUCUCGGUAGCCAAGUUGGUUUAAGGCGCAAGACUUUAAUUUAUCACUACGAAAUCUUCAGAUCGGGCCUUCGACUCGCCCCCGGGAUAUUUUUUCCUCGAGCAA | ≤ 0.026
CUCUCGGUAGCCAAGUUGGUUUAAGGCGCAAGACUUUAAUUUAUCACUACGAAAUCUUUAGAUCGGGCUUUCGACUCGCCCCCGGGAGAUUUUUUCCUCGAGCAA | ≤ 0.026
CUCUCGGUAGCCAAGUUGGUUUAAGGCGCAAGACUUUAAUUUAUCACUACGAAAUCUUUAGAUCGGGCGUUCGACUCGCCCCCGGCAGGUUUUUUCCUCGAGCAA | ≤ 0.026
CUCUCGGUAGCCAAGUUGGUUUAAGGCGCAAGACUUUAAUUUAUCACUACGAAAUCUUCAGAUCGGGCGUUCGACACGACCCCGGGAGAUUUUUUCCUCGAGCAA | ≤ 0.026
CUCUCGGUAGCCAAGUUGGUUUAAGGCGCAAGACUUUAAUUUAUCACUACGAAAUCUUUAGAUCGGGCGUUCGACUCGCCCCCGGGAGGUUUUUUCCUCGAGCAA | ≤ 0.026
CUCUCGGUAGCCAAGUUGGUUUAAGGCGCAAGACUUUAAUUUAUCACUACGAAAUCUUCAGAUCGGGCGUGCGACUGGCCCCCGGGAGAUUUUUUCCUCGAGCAA | ≤ 0.026
CUCUCGGUAGCCAAGUUGGUUUAAGGCGCAAGACUUUAAUUUAUCACUACGAAAUCUUCAGAUCGGGCGUUCGACUCCCCCCCGGGAGAUUUUUUCCUCGAGCAA | ≤ 0.026
CUCUCGGUAGCCAAGUUGGUUUAAGGCGCAAGACUUUAAUUUAUCACUACGAAAUCUUCAGAUCGUGCGUUCGACUCGCCCCCGAGAGAUUUUUUCCUCGAGCAA | ≤ 0.026
CUCUCGGUAGCCAAGUUGGUUUAAGGCGCAAGACUUUAAUUUAUCACUACGAAAUCUUCAGAUCGGGCGUCCGACUCGCCCCCGGGAGAUUUUUUCCUCGAGCAA | ≤ 0.026
CUCUCGGUAGCCAAGUUGGUUUAAGGCGCAAGACUUUAAUUUAUCACUACGAAAUCUUCAGAUCGGGCGUACGACUCGCCCCCGGGAGAUUUUUUCCUCGAGCAA | ≤ 0.026
CUCUCGGUAGCCAAGUUGGUUUAAGGCGCAAGACUUUAAUUUAUCACUACGAAAUCUUUAGAUCGGGCGUUCGACUCGCAGCCGGGAGAUUUUUUCCUCGAGCAA | ≤ 0.026
CUCUCGGUAGCCAAGUUGGUUUAAGGCGCAAGACUUUAAUUUAUCACUACGAAAUCUUCAGAUCCGGCGUUCGACUCGCCCCCGGGAGAUUUUUUCCUCGAGCAA | ≤ 0.026
CUCUCGGUAGCCAAGUUGGUUUAAGGCGCAAGACUUUAAUUUAUCACUACGAAAUCUUCAGAUCUGGCGUUCGACUCGCCCCCGGGAGAUUUUUUCCUCGAGCAA | ≤ 0.026
CUCUCGGUAGCCAAGUUGGUUUAAGGCGCAAGACUUUAAUUUAUCACUACGAAAUCUUUAGAUCCGGCGUUCGACUCGCCCCCGGGAGCUUUUUUCCUCGAGCAA | ≤ 0.026
CUCUCGGUAGCCAAGUUGGUUUAAGGCGCAAGACUUUAAUUUAUCACUACGAAAUCUUCAGAUCGGGCGUUCUACUCGCCCCCGGGAGAUUUUUUCCUCGAGCAA | ≤ 0.026
CUCUCGGUAGCCAAGUUGGUUUAAGGCGCAAGACUUUAAUUUAUCACUACGAAAUCUUCAGAUCGGGCGUUCCACUCGCCCCCGGGAGAUUUUUUCCUCGAGCAA | ≤ 0.026
CUCUCGGUAGCCAAGUUGGUUUAAGGCGCAAGACUUUAAUUUAUCACUACGAAAUCUUCAUAUCGGGCGUUCUACUCGCCCCCGGGAGAUUUUUUCCUCGAGCAA | ≤ 0.026
CUCUCGGUAGCCAAGUUGGUUUAAGGCGCAAGACUUUAAUUUAUCACUACGAAAUCUUCAGAUCGGGCGUUCGACUCGCCCCAGGGAGAUUUUUUCCUCGAGCAA | ≤ 0.026
CUCUCGGUAGCCAAGUUGGUUUAAGGCGCAAGACUUUAAUUUAUCACUACGAAAUCUUUAUAUAGGGCGUUCGACUCGCCCCCGGGAGAUUUUUUCCUCGAGCAA | ≤ 0.026
CUCUCGGUAGCCAAGUUGGUUUAAGGCGCAAGACUUUAAUUUAUCACUACGAAAUCUUUAGAUCGGGCAUUCGACUCGCCCCCGUGAGAUUUUUUCCUCGAGCAA | ≤ 0.026
CUCUCGGUAGCCAAGUUGGUUUAAGGCGCAAGACUUUAAUUUAUCACUACGAAAUCUUUAGAUCGGGCGUUGGACUCGUCCCCGGCAGAUUUUUUCCUCGAGCAA | ≤ 0.026
CUCUCGGUAGCCAAGUUGGUUUAAGGCGCAAGACUUUAAUUUAUCACUACGAAAUCUUGCGAUCGGGCGUUCGACUCGCCCCCGGGAGAUUUUUUCCUCGAGCAA | 0.489
CUCUCGGUAGCCAAGUUGGUUUAAGGCGCAAGACUUUAAUUUAUCACUACGAAAUCUUCAGAUCGGGCAUUCGACUCGCCCCCGGGAGAUUUUUUCCUCGAGCAA | ≤ 0.026
CUCUCGGUAGCCAAGUUGGUUUAAGGCGCAAGACUUUAAUUUAUCACUACGAAAUCUUCAGAUCGGGCCUUCGACUCGCCCCCGGGAGAUUUUUUCCUCGAGCAA | ≤ 0.026
CUCUCGGUAGCCAAGUUGGUUUAAGGCGCAAGACUUUAAUUUAUCACUACGAAAUCUUGCGAUGGGGCGUUCGACUCGCCCCCGGGAGAUUUUUUCCUCGAGCAA | ≤ 0.026
CUCUCGGUAGCCAAGUUGGUUUAAGGCGCAAGACUUUAAUUUAUCACUACGAAAUCUUUAGAUCGGGCGUUCGACUCGCCCACGGGAGAUUUUUUCCUCGAGCAA | ≤ 0.026
CUCUCGGUAGCCAAGUUGGUUUAAGGCGCAAGACUUUAAUUUAUCACUACGAAAUCUUUAGAUCGGGCGUUCGACGCGCCCGCGGGAGAUUUUUUCCUCGAGCAA | ≤ 0.026
